# Source: PubChem BioAssay AID1346428 (National Center for Advancing Translational Sciences (NCATS), 2018)
# Out of some 48,000 compounds screened, about 1,200 (2.5%) were called active. Not shown: some 2% with an inconclusive outcome.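 How the source made its calls: active means activation of at least 60% and not above a set upper limit (about 1 call in 100 departs from these limits); inconclusive means activation of 40% to 60%, or above that upper limit; inactive means activation under 40%.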 This is one part of the list.
# Biological target: Probable G-protein coupled receptor 32 (Homo sapiens) (UniProt O75388)
# Assay: qHTS for Agonists of Human Resolvin D1 Receptor DRV1; further: 0% is about no effect
# Settings: CHO-K1 GPR32 beta-arrestin PathHunter luminescence, 90 min; at 76.9 µM; active compounds read high; zero percent set by DMSO-only wells
# In short: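 Beta-arrestin recruitment read-out: luminescence from complemented beta-Gal in CHO-K1 GPR32 PathHunter cells, measured 1 h after detection reagent at ambient temperature following 90 min compound exposure at 37 °C; DMSO served as basal (EC0) control.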
# Chain of UniProt O75388 (O75388 whole entry, looked up): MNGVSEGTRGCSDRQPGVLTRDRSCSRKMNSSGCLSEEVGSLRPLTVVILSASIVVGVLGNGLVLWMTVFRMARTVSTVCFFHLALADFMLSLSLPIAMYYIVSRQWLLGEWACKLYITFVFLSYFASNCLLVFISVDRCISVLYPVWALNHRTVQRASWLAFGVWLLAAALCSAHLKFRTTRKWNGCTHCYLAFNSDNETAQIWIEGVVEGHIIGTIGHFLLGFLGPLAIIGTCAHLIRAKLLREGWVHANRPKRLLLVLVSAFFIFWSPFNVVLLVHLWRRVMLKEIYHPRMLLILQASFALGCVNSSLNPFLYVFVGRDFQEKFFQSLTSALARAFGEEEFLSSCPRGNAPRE
row,SMILES,activation
1,CN(C)CCOC(c1ccccc1)c1ccc(Br)cc1 (stereo unspecified),inactive: 15.2%
2,CCOc1ccc(CNC(=O)CN2C(=O)CSc3ccc(S(=O)(=O)N4CCOCC4)cc32)cc1OC,inactive: -13.4%
3,COc1ccc(-c2noc(-c3cc(C(C)C)[nH]n3)n2)cc1,inactive: 17.3%
4,COC(=O)C1=C(C)NC(C)=C(C(=O)OCCCN2CCC(c3ccccc3)(c3ccccc3)CC2)C1c1cccc([N+](=O)[O-])c1 (stereo unspecified),active: 105%
5,CCN1CCc2c(sc(NC(=O)CSc3ccccc3)c2-c2nc3ccccc3s2)C1,inactive: -29.8%
6,CCC1=Nc2cc(C(=O)NCCCOC(C)C)ccc2Sc2ccc(C)cc21,inactive: -30.2%
7,Cc1cc2oc(C(=O)N(Cc3ccc(N(C)C)cc3)CC3CCCO3)c(C)c2cc1C (stereo unspecified),inactive: -22.5%
8,O=C(NCc1ccc(Cl)cc1)C1(c2cccs2)CCOCC1,inactive: 6.2%
9,O=C(Nc1ccc(NC(=O)c2cccs2)cc1)c1ccc(Cl)cc1,inactive: 13.8%
10,COC(=O)c1ccccc1NC(=O)Cn1ncc2c(C)n(Cc3ccc(F)cc3)c(C)c2c1=O,inactive: -5.49%
11,Cc1ccc(OCCSc2nc3ccccc3n2CC(=O)N2CCCCC2)cc1C,inactive: 2.9%
12,COC(=O)c1ccccc1NC(=O)CCn1nc(C)c2c(C)n(-c3ccccc3)nc2c1=O,inactive: -10.4%
13,CC(=O)c1cccc(Nc2cc(C)nc3nc(-c4ccccc4C)nn23)c1,inactive: -24.9%
14,C/C=C/CC(C)C(O)C1C(=O)NC(CC)C(=O)N(C)CC(=O)N(C)C(CC(C)C)C(=O)NC(C(C)C)C(=O)N(C)C(CC(C)C)C(=O)NC(C)C(=O)NC(C)C(=O)N(C)C(CC(C)C)C(=O)N(C)C(CC(C)C)C(=O)N(C)C(C(C)C)C(=O)N1C (stereo unspecified),inactive: -25.3%
15,COc1ccc2oc(=O)c(-c3nc4ccc(C)cc4[nH]3)cc2c1,inactive: 3.5%
16,O=C(COc1ccccc1F)Nc1ccc2nc(SCc3ccccc3)sc2c1,inactive: 35.6%
17,CCC(=O)N1CCc2cc(S(=O)(=O)NCCC(=O)Nc3cccc(SC)c3)ccc21,inactive: 34.2%
18,CCOC(=O)c1cc(-c2ccc(F)cc2)n(CCC(=O)NCc2ccc(C)cc2)c1C,inactive: -31.8%
19,Cc1ccc(-n2ncc(C(=O)N3CCN(c4cccc(C)c4C)CC3)c2C2CCNCC2)c(C)c1,inactive: 22.8%
20,COc1ccc(Br)cc1CC1C(=O)Nc2ccccc21 (stereo unspecified),inactive: 21.9%
21,COc1ccccc1NC(=O)C1=C(C)Nc2nc(SCc3ccccc3Cl)nn2C1c1cccnc1 (stereo unspecified),inactive: 2.99%
22,CN(C(=O)NCc1noc2ccccc12)c1cccc(Cl)c1,inactive: -11.6%
23,Cc1ccc2c(c1)sc1nc(=O)n(-c3cccc(Cl)c3)c(=O)n12,inactive: -1.67%
24,CCCN1C(C(=O)c2ccccc2)=C(OC(=O)C(C)(C)C)c2ccccc2S1(=O)=O,inactive: -36.7%
25,Cc1ccc(NC(=O)CN2CCN(C3CCCCC3)C(=O)C2=O)cc1C,inactive: 0.0016%
26,CCCCc1nn2c(C)c(-c3ccc(OCC)cc3)nc2s1,inactive: 5.24%

row,SMILES,activation
1,Cc1cc(Cl)ccc1NS(=O)(=O)c1cc2[nH]c(=O)c(=O)[nH]c2cc1C,inactive: 13.2%
2,Cc1ccc(-n2c(=O)[nH]c3sc4c(c3c2=O)CCNC4)cc1C,inactive: 6.23%
3,Cc1ccc(NC(c2cccc(Cl)c2)c2nnc(-c3ccccc3)o2)cc1F (stereo unspecified),inactive: -26.5%
4,CCOC(=O)C1CCN(C(=O)Cn2nc(CC)n3c(cc4occc43)c2=O)CC1,inactive: -12.7%
5,O=C(Cn1ncc2c3ccccc3n(Cc3cccc(Cl)c3)c2c1=O)N1CCCCC1,inactive: -18.8%
6,COc1ccc(CN2C(=O)c3ccccc3C2C(=O)NC2CCCCCC2)c(OC)c1 (stereo unspecified),inactive: -3.57%
7,CCc1ccc(C2CC(=O)N(c3cccc(C(F)(F)F)c3)C3=C2C(=O)OC3)cc1 (stereo unspecified),inactive: 25.7%
8,CCOCCc1nn2c(=O)cc(COC(=O)c3ccc(NC(=O)c4ccc(F)cc4)cc3)nc2s1,inactive: 19.8%
9,COc1cc(NC(=O)Cn2c(=O)n(CC3CCCO3)c(=O)c3cc(OC)c(OC)cc32)cc(OC)c1 (stereo unspecified),inactive: -0.593%
10,COc1ccccc1C(=O)NCCc1csc(-c2ccc(C(F)(F)F)cc2)n1,inactive: 12%
11,Cc1ccc(C)c(NC2=C(c3ccc(C(F)(F)F)cc3)C(=O)c3ccccc32)c1,inactive: -16.7%
12,CC[C@H](C)C(=O)O[C@H]1C[C@@H](C)C=C2C=C[C@H](C)[C@H](CC[C@@H]3C[C@@H](O)CC(=O)O3)[C@H]21,inactive: 41%
13,CC(=O)N1CCc2cc(CNC(=O)Nc3ccccc3C(F)(F)F)ccc21,inactive: 9%
14,Clc1ccc(C(Cn2ccnc2)OCc2ccc(Sc3ccccc3)cc2)c(Cl)c1 (stereo unspecified),inactive: -10.1%
15,COc1ccc2c(CNC3CCC(C)CC3)c(C(=O)O)n(Cc3ccccc3)c2c1 (stereo unspecified),inactive: 39%
16,Cc1cccc(Cn2nnc3c(=O)[nH]c(C4CCCN(C(=O)c5ccc(C(C)(C)C)cc5)C4)nc32)c1 (stereo unspecified),inactive: -13.1%
17,CCCN1CCCc2cc(CN(CCCN3CCOCC3)C(=O)Nc3ccc(OCC)cc3)ccc21,inactive: 17%
18,CCOc1ccccc1CNC(=O)C1CCN(Cc2cc3ccccc3n2Cc2ccccc2)CC1,inactive: -24.1%
19,Cc1ccc(-c2cn3nc(N4CCC(C(=O)Nc5ccccc5C)CC4)sc3n2)cc1,inactive: 0.322%
20,Cn1c2ccccc2c2c(C(=O)N3CCN(c4cccc(C(F)(F)F)c4)CC3)cn(C3CCCCC3)c(=O)c21,inactive: -30.2%
21,CCC(C(=O)Nc1cc(OC)ccc1OC)n1nc(-c2ccccc2)c2c(c1=O)CCCC2 (stereo unspecified),inactive: -23.4%
22,CN(C)S(=O)(=O)N(CC(=O)NCCSc1ccc(Cl)cc1)c1ccccc1,active: 69.9%
23,Cc1ccc2oc(C(=O)Nc3ccc(S(=O)(=O)Nc4ncccn4)cc3)cc(=O)c2c1,inactive: -7.95%
24,O=C(COCc1cc(-c2ccc3c(c2)OCO3)on1)N1CCN(c2cccc(C(F)(F)F)c2)CC1,inactive: -25.8%
25,COc1cc2nc(NC(=O)c3ccc(S(=O)(=O)N4CCCC4)cc3)sc2cc1OC,inactive: 33.2%
